B1: OR4K15 (parent)
chain: GUUAACGGUCAUAGGCCAUGGAAACUAGGAGCACCAUUUCGCUGCCAGUGAAGAAAUGAACAAAGAAAAUCUGGGCCAGGCAGGCAUCAAAAGAAAUAGUCUUGCGCUCAACCAGAAAGUCUGUAAUCAUUUUAAGGGUA

Read counts are not given, so values of variants with three or more changes are uncertain.

The variants in this data set derive from B1. Kind of data set: self-cleavage, relative activity (ratio to wild type); higher = more cleavage; in vitro, sequencing; the parent is a self-cleaving ribozyme.
Consider U9C U12A U38C A82G A118G U133A, for which the self-cleavage came to 1.02. The figure for C10A A56G A90G is 0.91.

On to A11C A64G U87C, for which the self-cleavage was found to be 0.59. The figure for U9C A13C A23G U43A A66G U100C A140U is 0.89; for U9C A90G A129G U130C it is 0.8. The figure for U9C U100A A111G is 0.03; for U9C A18G A52G A82G it is 0.64. Turning to U9C A92G U108C C112U, the self-cleavage amounted to 0. The figure for U9C A60U C85U A91G is 0.68; for U9C A11U U39C A64G A89G U102C it is 1.2. The figure for C10A U12C C109A A114G is 0.26; for U9C G53U A64G A67G A96G A111U it is 0.23. The figure for U9C A60G A68G is 1.37. Consider U9A U120C U122C, for which the self-cleavage was 0.62.

U9C U38C G74C: the self-cleavage amounted to 0.33. Turning to U9C U57C U100A U130C U132C, the self-cleavage is 0.77. With U9C A23G A90G A118G, the self-cleavage came out at 1.33.

Regarding U9C A86U A135G, the self-cleavage was found to be 2.99.

On to C10U A51G A56G, for which the self-cleavage was 0.53. Turning to U9C A52G U102C, the self-cleavage was determined as 2.24. The figure for U9C A54G A91G is 0.85; for U9C A54U A55G A62U it is 0.57. The figure for U9C A22G A82G is 0.45; for A11C A95G U122A U130C it is 1.29. For the variant U9C A11U U49C, the self-cleavage was determined as 1.43.

In the case of U9C U39A U87A, the self-cleavage was found to be 1.52.

U9A U43G A89G U122A U127A: the self-cleavage was 0.95. The figure for U9C U100C A126G is 1.06; for A11C A52G A110G it is 0.18.

With U9C A24C A66G A78G U87A A129G, the self-cleavage is 0.09.

As to A11G A13G U122C U132A, the self-cleavage is 1.05.

As to U9C C35U A86C, the self-cleavage turned out to be 0.39. Regarding U9C A66G G138A, the self-cleavage stood at 1.75. The figure for U9C A33G A66G A78G A91G A92G G106C A117G U132C is 0.01. On to U9C A52G A116G U120C, for which the self-cleavage is 0.14. In the case of U9C A55G A63G it was 1.56; in that of U9C A56G A60G A95G, 1.54; in that of A11G A18G A91G A95G A135G, 1.11. For the variant U9C A33G U39A A59U A94U U97C U102C, the self-cleavage is 0.51. The figure for U9C C16U A23G U38C A59G A116G U132C is 1.1; for U9C C16U A54G A60G it is 0.84. In the case of U9C A51G A60G A96G U130C U133C it was 2; in that of A11G A13G A23G, 1.04.

Consider U9C A24U A68G A90G, for which the self-cleavage was determined as 1.08. The figure for A11C U19C A30G A64G U127C is 1.7; for U9C A13U C46U A47G A55G A69G U127C it is 0.73.

Turning to U9C U38C A90G U108C, the self-cleavage stood at 0. The figure for U9A U43A A129G U133G is 0.56; for C10U A11G U19C it is 1.32. The figure for U9C A23G A56G is 1.63.

Turning to U9C A18U A114G, the self-cleavage amounted to 0.12.

With U9C A59C U72G G74A A89G U132C, the self-cleavage came out at 0.2. In the case of U9C A62G A68G A95G A118U it was 0.91.

Consider U9C A91C A92G U102A A118G, for which the self-cleavage turned out to be 1.17.

Regarding U9C U120C U127A, the self-cleavage came to 1.65. For the variant U9C G21A G53A, the self-cleavage came out at 1.42. As for U9C A30G A86G U87C A89G, the self-cleavage amounted to 1.11. Consider U9C U19C A98G U103C, for which the self-cleavage came out at 0.06. In the case of U9C A52U A63G A135G it was 1.95. For the variant U9C U37C A60G A126G, the self-cleavage is 0.92. In the case of U9C A52U A68G U122C it was 0.88; in that of U9C A47G A60G C121U, 1.99. In the case of U9C A62G A68G U102C A134G, the self-cleavage is 2.07.

With A11C A62U U103C, the self-cleavage was determined as 1.86. In the case of U9C A24G A110C it was 0.51; in that of U9C A64G A110G A111G, 0.03; in that of U9C G21A A55G A95G A110G U120C U130C, 0.14. Regarding U9A U70C G137A, the self-cleavage came out at 0.68. As to U9C U43A A60G U70C A118G, the self-cleavage was found to be 0.22. With U9C A95G U122A U131C, the self-cleavage was determined as 1.9. The figure for U9C C32U U37C C128U is 1.24. With A11G A18G A36G, the self-cleavage turned out to be 0.96. In the case of U9C A47U U57A U72C A94G it was 0.02.

With U9C A66G U108A, the self-cleavage turned out to be 0.04.

Take C10U A60G A95U A117G A140G: the self-cleavage was found to be 0.05. As for U9C A27G A51U A54U A64G U130C A140G, the self-cleavage is 0.72. In the case of U9C A62G C107A A117U it was 0.04; in that of U9C A56G A96G, 1.8; in that of A11G A22G U49C A62G A68G, 0.11.

With U9C A22U C88U U97C U103C A110U U130C, the self-cleavage turned out to be 0.23. In the case of U9C C16A U19A it was 1.17; in that of U9C A11G A55U A67U, 0.65; in that of U9C A23G A67G A92G, 0.72.

For U9C A30G G79A U120G, the self-cleavage is 0.15. In the case of U9C U49C A118G it was 1.99. In the case of U9C U39A A89G A94G it was 2.16; in that of U9C U57A U102C, 2. The figure for A11G A18G A54U is 1.11; for A11G A22G A60U A86G U102C it is 0.19; for U9C A22U A69C it is 2.64. As to U9C A78U A90G, the self-cleavage worked out at 0.22. In the case of A11C A24C U39A U70C C71U A96G it was 0.58; in that of U9C A51G A63G A116U, 0.69. The figure for U9C A90G A98G is 0.55; for U9C A33G A36G it is 1.52. Consider U9C A59G A118G, for which the self-cleavage is 0.88.

Turning to U9C A33U A110G, the self-cleavage worked out at 0.25. On to U9C A30G A47U, for which the self-cleavage stood at 0.68.

Regarding U9C A63G U108A, the self-cleavage amounted to 0.06. Regarding C10U A114C A117G A126G, the self-cleavage was 0. In the case of U9C U12A A22G A111G it was 0.17. In the case of U9C U37C A59G A60G U70C A86U U122A it was 0.19; in that of U9C A89G A92G, 1.97; in that of A11G A18U U108G U127A, 0.03. In the case of A11G A22G U37C A47G A63G it was 0.41. For the variant U9C G58U A62U U70C A134U, the self-cleavage came out at 0.92. For the variant C10U A66G U103C, the self-cleavage is 0.42. In the case of U9C A55U A62G it was 1.34; in that of U9C U37C A134G, 2.22. In the case of U9C C35U U122C it was 0.76; in that of U9C A11U U19G U97C U122A U124C, 0.59; in that of U9C U49C A54C, 1.75. Consider U9C A66G A67U A110C, for which the self-cleavage came to 0.36. Turning to U9C A51G A62G A95G, the self-cleavage was determined as 1.08. Regarding U9A U87A U132C, the self-cleavage turned out to be 1.13. The figure for U9C A24G A78G A135U is 0.63; for U9C A23G A69U it is 1.29. In the case of U9C A60G A82G C113A it was 0.06; in that of U9C U19C U87C, 1.85; in that of U9C U26C A62G A95G, 1.75. As to U9C A23G A51G A54C U72A A95G A110G, the self-cleavage came out at 0.09. The figure for U9C A18G A86G U122C is 1.55; for U9C A11G U120A it is 1.54; for U9C A18G U43C A51G A52G U87C C105U it is 0.12. The figure for A11C A22G A95G is 0.91; for A11C U12C A78U it is 0.37; for U9C A51G U57C G137A it is 1.34.

Consider U9C A22G C76U C113U, for which the self-cleavage amounted to 0.05. Turning to U9C U72A A126G, the self-cleavage was 0.28.

Consider A11G A13G A33U U39C A117G A135G, for which the self-cleavage was determined as 1.44.

Regarding U9A U87A A95G, the self-cleavage is 0.74. In the case of C10U A36U A91U U108C U124C U132A, the self-cleavage was 0.01. As to U9C A30G A96G U103C, the self-cleavage was determined as 1.25. The figure for C10A A47G A135G is 1.13. The figure for U9C A11G A52G A116G is 1.46; for U9C A62G U124C it is 0.53; for U9C U57A A86G A126G it is 1.24. As for U9C A22G A55G, the self-cleavage came out at 0.86. The figure for U9C A54G A96U is 1.23; for C10U A56G A60G A82G it is 0.84; for A11G A22G U37C A60G A82G G119A U132C it is 0.61. In the case of A11C A36U U108C U124C it was 0; in that of A11G A18G A63G A91G A135U A140G, 0.57.

For the variant U9G U87C A92G C113U, the self-cleavage was determined as 0.

With A11G A18G U26C A114U, the self-cleavage was 0.04.

On to U9C A24U U39C A94G A110G, for which the self-cleavage is 0.15. The figure for U9C C17U A36G U57G U103C is 0.09. The figure for U9C U19A A55G U102C is 1.29; for A11C A51U A54G A55G A64G A66G A111G it is 0.02. For A11G A22G G28C, the self-cleavage worked out at 1.53. Take U9C U19C G20A A86G A96G A111G: the self-cleavage came out at 0.04.

For the variant U9C G15A U19C C109U, the self-cleavage is 0.37. With A11C A62G A67G C85G, the self-cleavage was found to be 0.7.

Turning to U9C A22G U38C U120C U124C, the self-cleavage is 0.47. In the case of U9C U38C A51G A95G U132C U133C it was 2.22; in that of U9C A18C A56G A82G, 0.51; in that of U9C A33G A82G, 0.32. In the case of U9C U43C A68G U70A it was 0.76; in that of U9C A22G A30U U38C, 1.01. In the case of U9A U57G A96G it was 1.34.

Consider U9C A23G A91G U133C, for which the self-cleavage is 1.59. The figure for U9C A69G G138A is 2.22; for U9C U39A U122A it is 2.43; for A11C G20U U38C U103C it is 1.24. With U9C A33G A89G A94G U100C U120C, the self-cleavage came out at 1.46. The figure for U9A U72A A94U A116G U131C is 0.02; for U9C U19A U39C A47G it is 0.44.

For the origin of these results see the RNAGym collection of RNA variant scans (doi:10.7554/elife.90254).
